Experimental findings from ChEMBL document CHEMBL4888484, “Replenishing the malaria drug discovery pipeline: Screening and hit evaluation of the MMV Hit Generation Library 1 (HGL1) against asexual blood stage Plasmodium falciparum ,using a nano luciferase reporter read-out” (2022) are described below.

Screen size: about 150,000 compounds; about 540 (0.36%) showed an effect of 50% or more. The list shows a part of the results.

This assay relates to Plasmodium falciparum. The experiment in a line: Primary screen in NF54 nanoGlo assay, in single point, at 2uM, 72h; a lower Z score goes with more inhibition. In kind it is functional, Erythrocyte. The settings on record: timepoint 72 hour.
The term % Inhibition denotes the relative decrease from the control value, in per cent. Turning to `CC1CC(C)(C)CC(CO)(NCC(=O)NC(C)C)C1` (centres undefined), the “% Inhibition” value is listed as -17% and the Z score came to 2.32.

On to `Cc1nn(-c2ccccc2)c2nc(N3CCN(C(=O)c4cccc(F)c4)CC3)sc12`, for which the “% Inhibition” value is recorded as -9% and the Z score stood at 1.03.

On to `Cc1nn(C)c(C)c1C(=O)NS(=O)(=O)N1CCc2ccccc21`, for which the “% Inhibition” value is -3% and the Z score is reported as 0.39.

For the compound `Cc1ccc(CCCC(=O)N(C2CC2)[C@@H](C)CS(C)(=O)=O)cc1`, the “% Inhibition” value was 2% and the Z score was -0.18.

Turning to `CCN(CC)C(=O)CCC(=O)NCC(OC)(OC)c1ccccn1`, the “% Inhibition” value is on record as 5% and the Z score was -0.86.

Turning to `CCOc1ccc(S(=O)(=O)NC2CCN3CCCCC23)cc1` (centres undefined), the “% Inhibition” value is -2% and the Z score is recorded as 0.38.

On to `CCOc1nccc(C)c1C(=O)N1CC[C@@H](Oc2ccccc2)C1`, for which the “% Inhibition” value was -10% and the Z score was 1.32.

In the case of `CCC(CC)C1CC(NC(=O)c2cccc(C3CCOC3)c2)CCO1` (centres undefined), the “% Inhibition” value is recorded as 4% and the Z score is listed as -0.81.

Regarding `O=C(CCS(=O)(=O)C1CCCC1)N1CCC[C@H]1c1ccc(Cl)c(Cl)c1`, the “% Inhibition” value is 2% and the Z score is given as -0.3.

Regarding `CCC[C@H](N)C(=O)N(C)Cc1ccco1`, the “% Inhibition” value turned out to be 6% and the Z score was -0.59.

Consider `Cc1cccc(S(=O)(=O)c2cnc(N(C)Cc3ccccc3)nc2N)c1`, for which the “% Inhibition” value is reported as 1% and the Z score is recorded as -0.22.

On to `CN1CCC(NCCOCc2ccc(Cl)cc2Cl)CC1`, for which the “% Inhibition” value was determined as 0% and the Z score amounted to 0.

As for `O=C(NC1CCCOCC1)C1CC2CCC1CC2` (centres undefined), the “% Inhibition” value is listed as 15% and the Z score was -2.12.

In the case of `OC[C@@]1(CCc2ccccc2)CCCN(C2CCN(Cc3ccccc3)CC2)C1`, the “% Inhibition” value was -13% and the Z score was found to be 1.16.

`O=C(c1ccc(-n2ccc(-c3cnccn3)n2)cc1)C1CC1`: the “% Inhibition” value is recorded as -8% and the Z score was 0.74.

Regarding `CC(C)NC(=O)[C@@H]1Cc2[nH]cnc2C2(CCN(C(=O)COc3ccccc3)CC2)N1`, the “% Inhibition” value was -6% and the Z score worked out at 0.95.

For `CC[C@@H](C(=O)NCc1ccccc1F)n1nc(C)c2nn(-c3ccccc3)c(C)c2c1=O`, the “% Inhibition” value is listed as 1% and the Z score is listed as -0.18.

As to `O=C(Nc1ccc(Cl)cc1)[C@@H]1CCCN1S(=O)(=O)Cc1ccc(F)cc1`, the “% Inhibition” value is listed as 0% and the Z score came to 0.06.

As for `COc1cc(NC(=O)c2ccc3c(c2)OCO3)ccc1-n1cnnn1`, the “% Inhibition” value was determined as 10% and the Z score is listed as -1.27.

`Cc1cccc(C(=O)N[C@H]2CCOC3(CC(C(=O)O)C3)C2)c1Cl` (some centres undefined): the “% Inhibition” value is -7% and the Z score stood at 1.39.

As for `CCCn1cnnc1CN(C)Cc1c(Cl)ccc(O)c1Cl`, the “% Inhibition” value was -1% and the Z score is on record as 0.15.

Take `COCCn1cncc1CN(C)[C@@H](C)c1nc(C)cs1`: the “% Inhibition” value is 0% and the Z score is recorded as -0.02.

For `N#Cc1cccc(-c2nccc3ccccc23)c1`, the “% Inhibition” value is -10% and the Z score was determined as 1.47.

On to `Cc1cc(NC(=O)N[C@@H](C)CO)ccc1N(C)C`, for which the “% Inhibition” value is recorded as -4% and the Z score turned out to be 0.59.

In the case of `CN(C)c1cccc(C(=O)Nc2ccc(C3=NNC(=O)CC3)cc2)c1`, the “% Inhibition” value is -15% and the Z score is 2.7.

On to `O=C(c1cnn2c1OCCC2)N1CCN(c2cccc(C(F)(F)F)c2)CC1`, for which the “% Inhibition” value is reported as -13% and the Z score is reported as 2.07.

As to `Cc1ccc(-c2nn(C)c(=O)c3c2CCCC3)cc1S(=O)(=O)NC1CCCCCC1`, the “% Inhibition” value is reported as -9% and the Z score amounted to 1.41.

`COc1ccc(C(NC(=O)CC[C@@H]2NC(=O)N(c3ccccc3)C2=O)C(C)C)cc1OC` (some centres undefined): the “% Inhibition” value was -10% and the Z score amounted to 1.25.

Consider `CC(C)C[C@H](NC(=O)N1CCOCC1)c1cccnc1`, for which the “% Inhibition” value is 2% and the Z score is reported as -0.37.

As to `Cc1nccn1[C@@H](C)CC(=O)N1CC(n2cccn2)C1`, the “% Inhibition” value was -2% and the Z score was determined as 0.31.

With `Cc1noc([C@@H]2CC3(CCN(C(=O)CC(C)C)CC3)CN2C)n1`, the “% Inhibition” value is given as -8% and the Z score is reported as 1.01.

`CCCN1CCC[C@H](NC(=O)c2cn(CCc3ccccc3)cc(C(=O)O)c2=O)C1`: the “% Inhibition” value is recorded as 0% and the Z score is listed as -0.06.

Take `O=C(c1cccc[n+]1[O-])N(Cc1cccc2ccccc12)C1CCCC1`: the “% Inhibition” value amounted to 11% and the Z score is on record as -1.69.

As to `Fc1cccc2c(N3CCC[C@H](N4CCOCC4)CC3)ncnc12`, the “% Inhibition” value is -17% and the Z score is 2.47.

As to `CCn1cc(S(=O)(=O)N2C[C@@H]3[C@H]4CC[C@H](CC4)[C@@H]3C2)cn1`, the “% Inhibition” value was found to be 2% and the Z score is on record as -0.33.

As for `CC1CCN(C(=O)Cn2cccc(S(=O)(=O)N3CCC(C)CC3)c2=O)CC1`, the “% Inhibition” value is reported as -1% and the Z score is on record as 0.25.

For the compound `O=C(CC1CCCC1)Nc1ccncc1`, the “% Inhibition” value is listed as -5% and the Z score worked out at 0.54.

As to `COC(=O)N1CCN(C[C@@H]2CCC[C@@H]2NC(=O)OC(C)(C)C)CC1`, the “% Inhibition” value is recorded as 9% and the Z score is given as -1.08.

On to `C[C@@]1(C(=O)NC2CCCCCCC2)Cn2c(ccc2-c2ccccc2)C(=O)N1Cc1ccco1`, for which the “% Inhibition” value amounted to 7% and the Z score is given as -0.83.

On to `Cc1cc(C)nc(Oc2cccc(NC(=O)c3cc(Cl)ccc3Cl)c2)n1`, for which the “% Inhibition” value is listed as 4% and the Z score is on record as -0.53.

Regarding `Cc1occc1C(=O)N1CCCCCCC1`, the “% Inhibition” value is on record as -14% and the Z score was 1.86.

Consider `CN(C)C(=O)CN(C)C(=O)C1CCCCC1`, for which the “% Inhibition” value is on record as -4% and the Z score turned out to be 0.45.
